Out of some 340,000 compounds screened, about 12,000 (3.5%) were called active. The inconclusive results got no clear call from the source; some entries with a clear call stand among them for comparison. The call rests on the fitted dose curve; in most records, active means well fitted inhibition curve with a large enough effect; inconclusive means small, poorly fitted or top-dose-only effect, or another doubt; inactive means no such curve, though single readings can be large or run the other way. No potency is given beside an inconclusive call; the fits are too rough.
Test: qHTS Assay for Inhibitors of Hepatitis C Virus (HCV)
Settings: Huh7.5.1 HCVcc-Cre (HCVcc is cell-culture hepatitis C virus) infection, luciferase reporter, 44 h; series mostly up to 41.8 µM
How it was run: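 Infectious HCVcc-Cre (~0.5 moi) was added to cells just after compound, with cells seeded 4 h earlier at 1,000 per well. Luciferase activity after 44 h culture reported infection; substrate was incubated 15 min at room temperature before reading.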
Potency means the concentration at half of the fitted maximal effect; tags describe the fitted curve by direction and shape.

Structure (SMILES) | Potency
CN1C(=O)/C(=C/c2ccccc2Cl)Sc2ccc(C(=O)N3CCCC3)cc21 | inconclusive [inhibitor, single point]
O=C(CNC(=O)c1ccccc1Cl)N/N=C/c1ccc([N+](=O)[O-])s1 | active: 12.6 µM
Cc1ccc(N=c2c([N+](=O)[O-])nn(-c3ccc4c(c3)OCCO4)n2O)cc1F | inconclusive [inhibitor, single point]
CC(=O)c1ccc(-n2ccc(=O)cc2)cc1 | inactive
Cc1ccccc1-c1ccc(Nc2ccc(N3CCOCC3)cc2)nn1 | inconclusive [inhibitor, partial curve, poor fit]
COc1cccc(C2c3[nH]c4ccccc4c3C[C@H]3C(=O)N(c4ccccc4C(=O)N4CCC[C@H]4C(=O)O)C(=O)N23)c1 (stereo not given in full) | active: 2.24 µM
COc1ccc(C(=O)Oc2c(CN3CCOCC3)cc(Cl)c3cccnc23)cc1OC | inactive
COc1ccc(OC)c(NS(=O)(=O)c2ccc(NC(=O)C3COc4ccccc4O3)cc2)c1 (stereo not given) | inconclusive [inhibitor, partial curve]
CC(C)(C)NS(=O)(=O)c1ccc(NC(=O)C(Sc2ccccc2)c2ccccc2)cc1 (stereo not given) | inconclusive [inhibitor, full curve, poor fit]
COc1ccc(NC(=O)COC(=O)CNS(=O)(=O)c2ccccc2)cc1OC | inactive
O=C(Nc1sc2c(c1C(=O)NCc1cccnc1)CCCC2)c1ccco1 | active: 7.94 µM
O=C(CSc1ccc(-c2ccccn2)nn1)Nc1ccccc1 | inconclusive [inhibitor, single point]
CS(=O)(=O)N1N=C(c2ccco2)CC1c1ccccc1Cl (stereo not given) | inactive
CCN(CC)S(=O)(=O)c1cc(-c2nnc(-c3ccc(Br)cc3)o2)ccc1Br | inconclusive [inhibitor, single point]
COC(=O)c1cc2sc(Cl)cc2n1CC(=O)Nc1cccc(SC)c1 | inconclusive [inhibitor, single point]
COC(=O)C1=C(c2ccc(-c3ccccc3)c(F)c2)C[C@@H]2CC[C@H]1N2C(=O)N1CCCC1 | active: 2.82 µM
Cc1c(N(C)S(=O)(=O)c2ccc(Cl)c(C(=O)N3CCC(C(N)=O)CC3)c2)c(=O)n(-c2ccccc2)n1C | inactive
Cc1nn(-c2ccccc2)c2nc(C(Cl)(Cl)Cl)[nH]c(=O)c12 | inactive
O=c1cc(N2CCN(c3cccc(Cl)c3)CC2)[nH]c(=O)n1C1CCCCC1 | inactive
COc1ccc(CCN2CN(S(=O)(=O)c3ccccc3)c3nc4ccccc4nc32)cc1OC | inconclusive [inhibitor, single point]
C=CCNc1oc(Cc2cccc3ccccc23)nc1C#N | inconclusive [inhibitor, single point]
Cc1c(NC(=O)c2cccs2)cccc1-c1nc2ccccc2s1 | inconclusive [inhibitor, single point]
OCCNC(=S)Nc1ccc(Cl)c(Cl)c1 | inactive
C=C[C@@H]1c2cccc(C)c2N(S(=O)(=O)c2ccc(C)cc2)[C@H](c2ccc(OC(C)=O)cc2)C1(C#N)C#N | inconclusive [inhibitor, partial curve]

Structure (SMILES) | Potency
Cc1ccc(Cl)cc1NC(=O)c1cc2ccccc2cc1O | inconclusive [inhibitor, full curve]
Cc1ccc(C)c(OCC(=O)NNC(=O)CSC(=S)N2CCCC2)c1 | inactive
CN(CC(=O)Nc1sccc1C(N)=O)S(=O)(=O)c1ccc(Cl)cc1 | inconclusive [inhibitor, single point]
Cc1ccc(-n2nc(CN3CCOCC3)c(-c3ccccc3)c2N)cc1Cl | inconclusive [inhibitor, single point]
CCc1c(C)sc(NC(=O)c2ccc(Br)o2)c1C(=O)OC | inconclusive [inhibitor, partial curve]
CCn1nc(C)c(NS(=O)(=O)c2ccc(C)cc2)c1C | inconclusive [inhibitor, single point]
COc1ccc(CCNC(=O)c2ccc(CS(=O)Cc3ccc(C)cc3)o2)cc1OC (stereo not given) | inconclusive [inhibitor, partial curve]
O=C(CSc1n[nH]c(-c2ccc(Br)cc2)n1)NC1CCCC1 | inconclusive [inhibitor, single point]
Cn1nnc2cc(C(=O)NCc3ccco3)ccc21 | inactive
CC(NC(=O)CSc1nc2c(c(C(F)(F)F)n1)CCc1ccccc1-2)c1ccccc1 (stereo not given) | active: 12.6 µM
COc1cc(-c2nc(S(=O)(=O)c3ccc(C)cc3)c(N3CCOCC3)o2)cc(OC)c1OC | inactive
COc1ccc(Nc2c3c(nc4ccc(C)cc24)CCC3)cc1 | inconclusive [inhibitor, partial curve]
O=C(c1cccc(S(=O)(=O)N2CCc3ccccc32)c1)N1CCN(c2ccccn2)CC1 | inconclusive [inhibitor, single point]
COC(=O)c1ccc(NC(=O)C(=O)N2CCN(C(=S)Nc3ccc(OC)cc3)CC2)cc1 | inconclusive [inhibitor, single point]
CCOC(=O)CCCCCNC(=O)c1c(O)[nH]c(=O)[nH]c1=O | inconclusive [inhibitor, single point]
Cc1cc(C(=O)Nc2sc3c(c2C#N)CCC(C)C3)cs1 (stereo not given) | inconclusive [inhibitor, partial curve]
CCN(CC)CCNC(=O)c1ccc(NC(=O)C2CCN(c3ncnc4sc(C)c(C)c34)CC2)cc1 | active: 12.6 µM
CN1[C@@H]2CC(OC(=O)[C@H](CO)c3ccccc3)C[C@H]1[C@@H]1O[C@@H]12 (stereo not given in full) | inconclusive [inhibitor, full curve]
O=C(c1ccccc1F)N1CCN(C(=O)C(c2ccccc2)c2ccccc2)CC1 | inactive
NNC(=O)c1n[nH]c2c1CC(C1CCCCC1)CC2 (stereo not given) | inconclusive [inhibitor, single point]
CCN(CC)P(=O)(Nc1ccccc1Br)c1ccc(N(C)C)cc1NC(=O)c1ccco1 (stereo not given) | inconclusive [inhibitor, single point]
O=C1c2cccc3cccc(c23)C(=O)N1CC1CCN(CC(O)COCc2ccc3c(c2)OCO3)CC1 (stereo not given) | active: 10 µM
O=C(O)CC(CC(=O)Nc1ccc(-n2ccc(C(F)(F)F)n2)cc1)c1ccccc1 (stereo not given) | inactive
C[C@H](CO)N1C[C@H](C)[C@H](CN(C)CC2CCCCC2)Oc2ccc(NS(=O)(=O)c3ccc(F)cc3)cc2CC1=O | inconclusive [inhibitor, single point]

Structure (SMILES) | Potency
O=C(Nc1ccc(NC(=S)NC(=O)C(c2ccccc2)c2ccccc2)cc1)c1ccccc1 | inconclusive [inhibitor, partial curve, poor fit]
CCCCCCCNc1cccc(C)c1 | inconclusive [inhibitor, single point]
CC(=O)NC(Cc1ccccc1)Cc1ccccc1 | inactive
CC1=N/C(=C/c2cc(Br)cc(Br)c2O)C(=O)O1 | inactive
O=C(NC1CCCC1)C(c1cccs1)N(C(=O)c1csnn1)c1ccccc1F (stereo not given) | inactive
Nc1c2c(nc3ccc(Br)cc13)N(Cc1ccccc1)CC2 | active: 10 µM
O=C(OCC(=O)C12CC3CC(CC(C3)C1)C2)c1ccc(O)cc1 | inconclusive [inhibitor, single point]
O=C(NCCc1c[nH]c2ccccc12)c1ccc(F)cc1F | inactive
Cc1cccc(NC(=O)C2CCN(C(=O)N3CCOc4ccccc43)CC2)c1C | inactive
O=C(Cn1ncc2c3ccccc3n(Cc3cccc(Cl)c3)c2c1=O)N1CCC2(CC1)OCCO2 | inconclusive [inhibitor, single point]
CCOC(=O)C1(CC2CCCCO2)CCN(Cc2nc(C(C)C)cs2)CC1 (stereo not given) | inconclusive [inhibitor, single point]
Cc1ccc(C(=O)NCCSC2CCCCC2)cc1S(=O)(=O)Nc1ccccc1 | inconclusive [inhibitor, single point]
COc1cc(NC(=O)C2=C(N3CCOCC3)/C(=C\c3ccc(N(C)C)cc3)CCC2)cc(OC)c1OC | active: 6.31 µM
CCOC(=O)N1CCC2(CC1)C(C#N)=C(N)Oc1n[nH]c(C)c12 | inactive
Cc1ccc(C)c(S(=O)(=O)NCC(=O)NCc2ccco2)c1 | inactive
Cc1cccc(N(C(=O)c2nsc(Cl)c2Cl)C(C(=O)NC2CCCC2)c2ccc(O)cc2)c1C (stereo not given) | inconclusive [inhibitor, full curve]
CCOC(=O)N/N=C(\C)c1ccc(Oc2ncccn2)cc1 | inactive
CCOC(=O)Cn1nc(C)c(NC(=O)c2ccc(Cl)c([N+](=O)[O-])c2)c1C | inactive
Fc1ccccc1C(c1nnnn1Cc1ccc2c(c1)OCO2)N1CCN(Cc2ccco2)CC1 (stereo not given) | inconclusive [inhibitor, single point]
Cc1cccc(C)c1NC(=O)CN(C)C(=O)c1ccc(NS(=O)(=O)c2ccc3[nH]c(=O)[nH]c3c2)cc1 | inconclusive [inhibitor, partial curve, poor fit]
O=C(N/N=C/C=C/c1ccc2c(c1)OCO2)c1ccc([N+](=O)[O-])cc1 | inconclusive [inhibitor, partial curve]
C/C(N)=C(/C#N)C(=O)CSc1nnc(Nc2cccc(C)c2C)s1 | inactive

Reference: PubChem BioAssay AID651820 (National Center for Advancing Translational Sciences (NCATS), 2012)
